In paper PMC4336329 (PLoS ONE, 2015):
Screen size: about 310,000 compounds; about 14,000 (4.5%) showed an effect of 50% or more. The effect is printed as a negative number. The list shows a part of the results.

These molecules were tested against human ether-à-go-go-related gene (hERG) potassium channel (human, UniProt Q12809) (assay: primary screen, population patch clamp on CHO cells stably expressing hERG).
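Also: peak tail current of the secondary pulse compared with the same well before compound.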

human ether-à-go-go-related gene (hERG) potassium channel, sequence (Q12809 whole entry, looked up): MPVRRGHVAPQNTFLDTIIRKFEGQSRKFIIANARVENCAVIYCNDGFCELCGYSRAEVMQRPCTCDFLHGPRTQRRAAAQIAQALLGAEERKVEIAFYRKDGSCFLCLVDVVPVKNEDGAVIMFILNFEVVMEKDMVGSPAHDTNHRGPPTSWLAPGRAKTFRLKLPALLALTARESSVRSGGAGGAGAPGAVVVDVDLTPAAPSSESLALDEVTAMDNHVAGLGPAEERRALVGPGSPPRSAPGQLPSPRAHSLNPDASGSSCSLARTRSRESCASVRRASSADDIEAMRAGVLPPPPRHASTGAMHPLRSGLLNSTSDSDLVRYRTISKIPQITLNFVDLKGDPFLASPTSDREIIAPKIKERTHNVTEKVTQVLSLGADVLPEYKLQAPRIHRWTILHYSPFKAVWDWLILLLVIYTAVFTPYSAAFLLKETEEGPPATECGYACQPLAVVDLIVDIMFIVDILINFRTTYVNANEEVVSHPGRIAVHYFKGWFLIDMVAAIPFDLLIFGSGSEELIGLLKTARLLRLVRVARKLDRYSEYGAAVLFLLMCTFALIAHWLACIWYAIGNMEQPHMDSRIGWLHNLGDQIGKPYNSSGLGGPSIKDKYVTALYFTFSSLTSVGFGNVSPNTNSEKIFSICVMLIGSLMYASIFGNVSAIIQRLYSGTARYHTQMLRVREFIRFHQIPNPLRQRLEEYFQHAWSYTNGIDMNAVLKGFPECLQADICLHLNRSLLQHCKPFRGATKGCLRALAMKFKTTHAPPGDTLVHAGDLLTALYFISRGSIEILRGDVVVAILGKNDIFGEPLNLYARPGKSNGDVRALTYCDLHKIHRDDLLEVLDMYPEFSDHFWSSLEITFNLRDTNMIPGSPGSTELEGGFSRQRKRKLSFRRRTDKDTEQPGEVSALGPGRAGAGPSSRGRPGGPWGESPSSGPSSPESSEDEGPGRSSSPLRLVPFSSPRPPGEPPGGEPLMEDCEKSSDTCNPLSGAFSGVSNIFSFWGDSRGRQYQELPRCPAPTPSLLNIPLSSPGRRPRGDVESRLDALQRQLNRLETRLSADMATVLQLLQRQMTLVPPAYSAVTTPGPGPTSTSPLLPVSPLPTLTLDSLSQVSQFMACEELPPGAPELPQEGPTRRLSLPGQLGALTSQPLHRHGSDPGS

Compound | hERG current change (%, negative = inhibition) at 10uM
CS(=O)c1ccc(-n2c(=O)n(Cc3ccccc3)c(=O)c3[nH]cnc32)cc1 (centres unmarked) | 2.47%
Cc1nc2ccccc2c2oc(C(=O)N3CCN(C4CCCCC4)CC3)cc12 | -64.7%
CCCc1cc(C(=O)N2CCCC(N3CCN(c4ccc(F)cc4)CC3)C2)no1 (centres unmarked) | -73%
O=C(Nc1cc(Cl)ccc1-n1cncn1)c1cccs1 | -24.9%
N/C(=N\OC(=O)c1cc(-c2ccccc2)nc2ccccc12)c1cccnc1 | -8.32%
CCSc1nnc(NC(=O)C2CCN(S(=O)(=O)c3c(C)c(C)cc(C)c3C)CC2)s1 | 7.7%
COC(=O)c1cc(NC(=O)c2cccc(C(F)(F)F)c2)c(=O)oc1C/C=N/OCc1cccc(Cl)c1Cl | 1.53%
O=C(NCCc1ccccc1)C(=O)NCCC1CCCCN1S(=O)(=O)c1ccccc1 (centres unmarked) | -19.5%
O=C(CCNC(=O)c1ccccc1Cl)Nc1nc(-c2ccc3ccccc3c2)cs1 | -26.4%
COc1ccc(CCNC(=O)CC(NC(=O)c2ccccc2Cl)c2ccccc2)cc1 (centres unmarked) | 7.07%
Cc1cccc(N2CCC(N=CN(C)C)=N2)c1 | 3.62%
CCOC(=O)CC1=CC(=O)Nc2ccccc2N1 | -4.25%
Cn1ccc(NC(=O)CCl)n1 | 7.72%
COc1ccc(CC(=O)NC(=S)Nc2cccc(CO)c2)cc1 | -5.99%
Cc1ccc(N(C(=O)C(F)(F)F)C(C(=O)NC2CCCCC2)c2cccs2)cc1 (centres unmarked) | 3.86%
CN1C(=O)/C(=C/c2coc3ccc(O)cc3c2=O)SC1=S | 14.9%
CCOC(=O)c1c(C)nn(-c2ncccc2NC(=O)CCC(=O)O)c1C | 14.9%
CC1CCCCN1C(=O)COC(=O)C1CCN(S(=O)(=O)c2ccc(Cl)c(C(F)(F)F)c2)CC1 (centres unmarked) | -7.37%
Cc1cc(=O)oc(C)c1C(=O)N1CCN(Cc2ccc3c(c2)OCO3)CC1 | 8.2%

Compound | hERG current change (%, negative = inhibition) at 10uM
Brc1ccc(/C=N/Nc2ccccn2)cc1 | 11.4%
CCOC(=O)C1=C(C)NC(C)=C(C(=O)OCC)C1C(=O)OCC(=O)NC(C)C | 2.31%
CCCCCCOc1ccc(C(=O)n2cnc(N)n2)cc1 | 1.05%
COc1cccc(-c2cc(C(F)(F)F)n3nc(N)nc3n2)c1 | 0.86%
Nc1ncnc2c1ncn2CCOc1ccccc1 | 5.18%
Cc1cnc(C(=O)OC(C)C(=O)Nc2ccc(Oc3ccccc3)cc2)cn1 (centres unmarked) | 6.07%
COc1ccccc1C(=O)NCC(c1cccs1)N1CCc2ccccc21 (centres unmarked) | 1.26%
O=C(NCc1ccccc1)c1ccc[n+]([O-])c1 | 30.8%
COc1cc([N+](=O)[O-])ccc1N1C(=O)CC(Sc2nccc(C)n2)C1=O (centres unmarked) | -18.3%
CCCCCc1c(C)nc(Nc2ccccc2)[nH]c1=O | 5.44%
Cc1cc(C)n(-c2n[nH]c(=O)c3ccccc23)n1 | 5.06%
COCc1c(C(=O)N/N=C(\C)c2ccncc2)nnn1-c1nonc1N | 7.11%
CCC(C(=O)NCc1cccs1)n1nc(C)n2c(cc3occc32)c1=O (centres unmarked) | 0.0905%
COc1ccc(/C=N/Nc2ccc(C(F)(F)F)cc2[N+](=O)[O-])cc1O | 4.09%
CCN(CC(=O)NC1CCCC1)S(=O)(=O)c1ccc(C)cc1 | -27.1%
COCCSc1ccccc1C(=O)Nc1ccccc1C#N | -4.85%
Cc1cc(C)cc(NC(=O)C(OC(=O)Cn2cnc3c2c(=O)n(C)c(=O)n3C)c2ccccc2)c1 (centres unmarked) | -69.7%
CCc1nc2c(cnn2-c2ccc(F)cc2)c(=O)n1-c1ccc(N2CCC(C)CC2)cc1 | 17.1%
O=C(Nc1nc2c(s1)C(=O)CCC2)c1ccccc1 | 17.4%

Compound | hERG current change (%, negative = inhibition) at 10uM
COc1ccc(CCNC(=O)c2ccc(Cl)c(S(=O)(=O)N3CCCCCC3)c2)cc1 | -34.2%
C=CCc1c(C)nc(SCc2ccccc2)[nH]c1=O | 2.02%
CCCC(=O)Nc1ccc2c(c1)nc(CN1CCN(C(=O)OCC)CC1)n2C | 19.7%
O=C(NC1CCN(C(=O)Nc2ccccc2Cl)CC1)c1ccccc1 | 4.22%
Cc1ccc([N+](=O)[O-])cc1NC(=O)CN(C(=O)c1ccc(Cl)cc1)C1CCCCC1 | -15.1%
Cn1nnnc1SCCNC(=O)C1CCC(=O)N(Cc2ccc(Cl)cc2)C1 (centres unmarked) | -15.2%
Cc1ccc(-n2c(=O)c3cc4c(=O)n(-c5ccc(C)c(C)c5)c(=O)c4c(C(=O)c4ccc(C(=O)O)cc4)c3c2=O)cc1C | 29.8%
Cc1ccc2c(c1)=C(c1sc(N(C)c3ccc(O)cc3)nc1O)C(=O)N=2 | 19.9%
COc1ccc(CCOC(=O)c2ccc(NC(=O)CC#N)cc2)cc1 | 23.8%
O=c1cnnc(NCc2ccccc2)[nH]1 | 14.9%
CCOC(=O)c1cn(Cc2ccccc2)c2cc(C)nn2c1=O | 3.41%
CCOC(=O)c1[nH]c2ccc(OC)cc2c1NC(=O)NC(C)C | 14.6%
CSc1ccc(CCNC(=O)c2ccc(CS(=O)Cc3ccc(Cl)cc3)o2)cc1 (centres unmarked) | -15.1%
COc1ccc(-c2nc3c4ccccc4[nH]c(=O)n3n2)cc1 | 6.03%
Brc1ccc2c(c1)C(OC1CN3CCC1CC3)c1ccccc1CS2.O=C(O)/C=C\C(=O)O (centres unmarked) | -71.4%
COc1ccc(NC(=S)NNC(=O)COc2ccc(Cl)cc2Cl)cc1 | 26.5%
COC(=O)C1=CN(C2CC2)C=C(C(=O)OC)C1c1ccc(C(F)(F)F)cc1 | -16%
O=C(CCCc1ccccc1)Nc1ccc(S(=O)(=O)N2CCOCC2)cc1 | -40.6%
